From PubChem BioAssay AID1460 (National Center for Advancing Translational Sciences (NCATS), 2008)
The campaign covered roughly 270,000 compounds. About 5,800 (2.1%) were called active. The inconclusive results got no clear call from the source; some entries with a clear call stand among them for comparison. Calls come from the whole dose curve; as a rule, active = well fitted inhibition curve with a large enough effect; inconclusive = small, poorly fitted or top-dose-only effect; inactive = flat fitted curve, though single readings scatter. Where the call is inconclusive, the potency comes from a doubtful curve fit.
Note: nearly all actives have a fitted effect of over 55% in size.
Potency is the fitted concentration of half-maximal effect; tags give direction and shape of the fitted curve.

These molecules were tested against Microtubule-associated protein tau (Homo sapiens) (UniProt P10636) (assay: qHTS for Inhibitors of Tau Fibril Formation, Thioflavin T Binding). Conditions: recombinant tau K18 P301L (four-repeat tau fragment), heparin-induced fibrillization, ThT fluorescence; series mostly up to 57.4 µM.
Chain of UniProt P10636 (P10636 whole entry, looked up, the tested form may be a part): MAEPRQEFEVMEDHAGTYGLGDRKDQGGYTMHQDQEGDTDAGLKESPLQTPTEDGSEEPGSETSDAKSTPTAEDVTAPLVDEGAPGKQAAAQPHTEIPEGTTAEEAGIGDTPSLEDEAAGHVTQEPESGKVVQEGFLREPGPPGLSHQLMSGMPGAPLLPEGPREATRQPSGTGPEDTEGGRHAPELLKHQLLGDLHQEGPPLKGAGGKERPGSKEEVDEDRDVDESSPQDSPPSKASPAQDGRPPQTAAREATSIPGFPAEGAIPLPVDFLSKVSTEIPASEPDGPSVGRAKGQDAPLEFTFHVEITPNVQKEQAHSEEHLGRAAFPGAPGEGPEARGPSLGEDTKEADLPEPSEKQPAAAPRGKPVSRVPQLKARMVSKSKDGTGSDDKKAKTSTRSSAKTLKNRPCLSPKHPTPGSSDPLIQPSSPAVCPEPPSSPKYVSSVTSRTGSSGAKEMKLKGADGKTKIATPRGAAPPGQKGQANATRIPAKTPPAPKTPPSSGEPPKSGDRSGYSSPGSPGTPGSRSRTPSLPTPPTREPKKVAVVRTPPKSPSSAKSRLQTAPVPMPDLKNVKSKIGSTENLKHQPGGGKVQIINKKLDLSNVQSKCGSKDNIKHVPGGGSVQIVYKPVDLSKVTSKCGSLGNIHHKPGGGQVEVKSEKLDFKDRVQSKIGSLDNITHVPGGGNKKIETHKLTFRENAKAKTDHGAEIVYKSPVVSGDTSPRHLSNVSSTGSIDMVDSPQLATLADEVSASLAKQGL
Procedure, shortened: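 In this qHTS, human K18 P301L tau is incubated with compound and heparin for 6 hr at 37 C, and Thioflavin T fluorescence then reports fibril load.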
`CC(C)NC(=O)NC(=O)COC(=O)c1ccccc1Oc1ccccc1` was tested, and the Potency was inconclusive: 31.6 µM [inhibitor, single point]. `COc1ccc(C(=S)N2CCCCCC2)cc1` was tested, and the Potency was inconclusive: 31.6 µM [inhibitor, single point]. `CN(C)/C=C/C(=O)c1ccc(Oc2ncccn2)cc1` was tested, and the Potency was inconclusive: 28.2 µM [inhibitor, single point]. For `O=C1CCCN1CCCNC(=S)Nc1ccc(Nc2ccccc2)cc1`, the Potency was inconclusive: 12.6 µM [inhibitor, partial curve]. `CC(=O)c1ccc(NC(=O)c2sc(-n3nc(C)c(CCC(C)C)c3C)nc2C)cc1` was tested, and the Potency was inconclusive: 3.16 µM [inhibitor, full curve]. With `COc1ccc2nc(NC(=O)CSc3nc(C)cc(C)n3)sc2c1` the Potency was inconclusive: 20 µM [inhibitor, partial curve]. `O=C1CC(SCc2nc3ccccc3[nH]2)C(=O)N1c1ccc(F)cc1` (centres undefined) was tested, and the Potency was inconclusive: 15.8 µM [inhibitor, partial curve]. In the case of `Cc1ccc2c(Sc3ccccc3)c(C(=O)NCc3ccccc3F)[nH]c2c1`, the Potency is reported as “inactive”. With `CCn1nc(C)c(NC(=O)CCCSc2nc(-c3ccco3)cc(C(F)(F)F)n2)c1C` the Potency was inconclusive: 20 µM [inhibitor, partial curve]. In the case of `CC(=O)Nc1ccc(C(=O)OCC(=O)N(Cc2ccccc2)C(C)(C)C)cc1`, the Potency is reported as “inactive”. In the case of `O=C(SCC(O)C(O)CS)c1cccs1` (centres undefined), the Potency is reported as inconclusive: 25.1 µM [activator, partial curve]. For `Cc1ccc(-c2cc(C(F)F)n3ncc(C(=O)Nc4c(C)nn(Cc5ccccc5Cl)c4C)c3n2)cc1`, the Potency was inconclusive: 17.8 µM [inhibitor, single point]. With `Cn1cccc1C(C#N)(CC#N)c1cccc(F)c1C#N` (centres undefined) the Potency was “inactive”. In the case of `CCN(CC)C(=O)c1sc(NC(=O)c2ccoc2C)c(C(=O)OC)c1C`, the Potency is reported as inconclusive: 15.8 µM [inhibitor, single point]. With `CCOc1cc(Cn2c(-c3ccc(O)c(OCC)c3)nc3ccccc32)ccc1O` the Potency was inconclusive: 6.31 µM [inhibitor, full curve]. In the case of `C=CS(=O)c1sc(Cl)c(N2CCOCC2)c1[N+](=O)[O-]` (centres undefined), the Potency is reported as active: 8.91 µM. For `CCC(=O)Nc1cccc(NC(=S)NC(=O)Cc2ccccc2)c1`, the Potency was inconclusive: 20 µM [inhibitor, partial curve]. `Cc1ccc(/C(=N\O)c2oc3c(C)c4oc(=O)cc(C)c4cc3c2C)cc1` was tested, and the Potency was “inactive”. In the case of `CC(=O)Nc1ccc(-c2csc(NC(=O)c3ccc(C)o3)n2)cc1`, the Potency is reported as inconclusive: 1.78 µM [inhibitor, partial curve]. In the case of `COc1cc(OC)c(NC(=O)c2sc3nc4n(c(=O)c3c2C)CCCC4)cc1Cl`, the Potency is reported as inconclusive: 28.2 µM [inhibitor, single point]. For `COc1ccc(-c2cc(-c3nnc(COC(=O)c4ccc(O)cc4)o3)c3ccccc3n2)cc1OC`, the Potency was inconclusive: 7.08 µM [inhibitor, partial curve]. For `CCCC(=O)Nc1nc(-c2ccc(Cl)s2)cs1`, the Potency was “inactive”. With `CCCc1cnc2c(c1SCc1cccc(C)c1)c(=O)n(C)c(=O)n2C` the Potency was inconclusive: 31.6 µM [inhibitor, single point]. For `N#CC1=C(N)S[C@H](C(=O)C23CC4CC(CC(C4)C2)C3)[C@H]1c1ccncc1`, the Potency was “inactive”. `O=C(CCSc1nnc(-c2ccncc2)o1)Nc1cccc2ccccc12` was tested, and the Potency was inconclusive: 17.8 µM [inhibitor, partial curve, poor fit]. In the case of `CCN(CC)S(=O)(=O)c1ccc(N2CCOCC2)c(NC(=O)Cc2ccccc2F)c1`, the Potency is reported as “inactive”. `CCOC(=O)c1sc(N2C(=O)c3oc4cc(C)c(C)cc4c(=O)c3C2c2ccc(C)cc2)nc1C` (centres undefined) was tested, and the Potency was “inactive”. With `CCC(=O)Nc1ccccc1-c1nc2ccccc2n(Cc2cccc(Br)c2)c1=O` the Potency was “inactive”. With `COC(=O)CC1=C(C(=O)OC)C(c2cccs2)C(C#N)=C(N)O1` (centres undefined) the Potency was inconclusive: 35.5 µM [inhibitor, single point]. With `C#CCNC(=O)C1=C[C@@H](c2ccccc2)C[C@@H](OCc2ccc(CO)cc2)O1` the Potency was “inactive”. For `CCCn1c(=N)n(CC(=O)c2ccco2)c2ccccc21`, the Potency was inconclusive: 39.8 µM [inhibitor, single point]. In the case of `COC1=C(OC)C(=O)C(CCCCCCCCCCO)=C(C)C1=O`, the Potency is reported as inconclusive: 28.2 µM [inhibitor, partial curve]. For `CCN(CC)S(=O)(=O)c1nnc(NC(=O)COc2ccc(C)cc2)s1`, the Potency was inconclusive: 2.24 µM [inhibitor, full curve]. With `C=CCNc1nc(-c2sc(NC(C)=O)nc2C)cs1` the Potency was inconclusive: 14.1 µM [inhibitor, partial curve, poor fit]. `Cc1c([N+](=O)[O-])cc(C(=O)Oc2cccc(C(=S)N3CCOCC3)c2)cc1[N+](=O)[O-]` was tested, and the Potency was inconclusive: 12.6 µM [inhibitor, partial curve]. `CC(=O)Nc1ccccc1-c1nc2ccccc2n(C(C)C(=O)Nc2cc(Cl)ccc2C)c1=O` (centres undefined) was tested, and the Potency was “inactive”. With `O=C(c1scc2c1CCCC2)N1CCCCC1` the Potency was “inactive”. With `CC(=O)c1c(C)[nH]c(C(=O)CSc2nnc(C3CCCCC3)n2N)c1C` the Potency was inconclusive: 15.8 µM [inhibitor, partial curve]. For `Cc1ccc(-c2nc(N)sc2-c2ccc(C)cc2)cc1`, the Potency was inconclusive: 31.6 µM [inhibitor, partial curve]. For `Nc1ccc(C(=O)Nc2ccc(Nc3ccncc3)cc2)cc1`, the Potency was inconclusive: 39.8 µM [inhibitor, single point]. `Cn1c(C(=O)O)c(CC(=O)N2CCC(Cc3ccccc3)CC2)c2ccccc21` was tested, and the Potency was inconclusive: 11.2 µM [inhibitor, partial curve]. `O=C(O)c1ccc2c(c1)C(=O)N(N1C(=O)c3ccccc3C1=O)C2=O` was tested, and the Potency was “inactive”. `N#CC1=C2N=C(N)c3c(sc4c3CCCCC4)N2C2=C(C(=O)CCC2)C1c1ccccc1` (centres undefined) was tested, and the Potency was inconclusive: 8.91 µM [inhibitor, partial curve]. With `COCCn1c(=NC(=O)/C=C/c2ccccc2)sc2cc(NC(C)=O)ccc21` the Potency was inconclusive: 15.8 µM [inhibitor, partial curve].
